Experimental data as given in PubChem BioAssay (NCATS).
The other results are listed elsewhere or left out. The main result of the screen is listed elsewhere. These columns were measured beside it and carry no call. The note in brackets gives the kind of curve behind each potency; many fits are weak.

Assay: qHTS drug screen for cell cycle checkpoint inhibitors in PARPi-resistant BRCA-mutant ovarian cancer cell lines. (AID 1963452)
Settings: PEO1/OlaR viability, CellTiter-Glo luminescence, 96 h; measured here: PEO4 viability
Method in brief: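 PEO1, PEO4 and PEO1/OlaR ovarian cancer cells, 600 per well, exposed 96 h at 37C to a dilution series. Viability read by CellTiter-Glo luminescence, normalized to DMSO and empty wells; activity summarized as Z-AUC.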
Tags tell the direction and shape of the fitted curve.

SMILES	AC50
O=C(NO)c1cnc(N2C[C@H]3C[C@@H]2CN3c2cc(C(F)(F)F)ccn2)nc1	7.76 µM [falling, partial curve]
COc1ccc(S(=O)(=O)N(CCO)c2ccccc2CN(C)C/C=C/c2ccc(Cl)cc2)cc1	15.5 µM [falling, partial curve]
N#C/C(=C1/Nc2ccccc2S1)c1ccnc(OCc2ccc(CN3CCOCC3)cc2)n1	12.3 µM [falling, partial curve]
FC(F)(F)c1ccc(/C=C/c2nc(COc3ccc(CCCCn4ccnn4)cc3)co2)cc1	0.0977 µM [falling, full curve]
COc1ccc(S(=O)(=O)N2CCc3cccc(-c4ccncc4)c32)cc1	0.616 µM [falling, full curve]
